This is an account of results in a collection of fitness landscapes (doi:10.1126/science.1257360).

This is one part of the list.

The chains are these.
B1: PhoQ; a variant is named by its letters at X, in order, P23837 (parent)
chain: MKKLLRLFFPLSLRVRFLLATAAVVLVLSLAYGMVALIGYSVSFDKTTFRLLRGESNLFYTLAKWENNKLHVELPENIDKQSPTMTLIYDENGQLLWAQRDVPWLMKMIQPDWLKSNGFHEIEADVNDTSLLLSGDHSIQQQLQEVREDDDDAEMTHSVAVNVYPATSRMPKLTIVVVDTIPVELKSSYMVWSWFIYVLSANLLLVIPLLWVAAWWSLRPIEALAKEVRELEEHNRELLNPATTRELTSLVRNLNRLLKSERERYDKYRTTLTDLTHSLKTPLXXLQXXLRSLRSEKMSVSDAEPVMLEQISRISQQIGYYLHRASMRGGTLLSRELHPVAPLLDNLTSALNKVYQRKGVNISLDISPEISFVGEQNDFVEVMGNVLDNACKYCLEFVEISARQTDEHLYIVVEDDGPGIPLSKREVIFDRGQRVDTLRPGQGVGLAVAREITEQYEGKIVAGESMLGGARMEVIFGRQHSAPKDE

In this assay the parent is B1. Nature of the assay: enrichment ratio after two sorts for PhoP signalling (ratio (wild type AVST 3.29)); higher = more functional. The settings on record: with PhoP (E. coli).
Regarding LSKS, the enrichment ratio is at most 0.25.

Consider HGRT, for which the enrichment ratio was at most 0.25.

As to TPEC, the enrichment ratio is at most 0.25.

With SWAF, the enrichment ratio is at most 0.25.

SNMR: the enrichment ratio stood at 1.49.

As to KNPG, the enrichment ratio is at most 0.25.

Take GQEI: the enrichment ratio was at most 0.25.

As to DVTM, the enrichment ratio was at most 0.25.

Consider FVGS, for which the enrichment ratio was 0.536.

Consider TVRI, for which the enrichment ratio is at most 0.25.

Regarding TVAN, the enrichment ratio worked out at 16.9.

Take KVCL: the enrichment ratio was at most 0.25.

Consider RFTG, for which the enrichment ratio is at most 0.25.

As to HENE, the enrichment ratio is at most 0.25.

As for GDAC, the enrichment ratio was at most 0.25.

IKER: the enrichment ratio is at most 0.25.

Consider IKTW, for which the enrichment ratio is at most 0.25.

Consider FYFN, for which the enrichment ratio was at most 0.25.

Turning to SWNW, the enrichment ratio was at most 0.25.

Turning to HRMG, the enrichment ratio is at most 0.25.

Take QKAM: the enrichment ratio was at most 0.25.

As to QMQP, the enrichment ratio is at most 0.25.

Turning to SKIK, the enrichment ratio was at most 0.25.

For the variant EAEI, the enrichment ratio is at most 0.25.

With WPHL, the enrichment ratio was at most 0.25.

Turning to QQQC, the enrichment ratio is at most 0.25.

NSAW: the enrichment ratio is at most 0.25.

Take WCCL: the enrichment ratio is at most 0.25.

Consider PSRR, for which the enrichment ratio is at most 0.25.

As to LEEY, the enrichment ratio was at most 0.25.

As to NDGH, the enrichment ratio was at most 0.25.

For the variant TQCC, the enrichment ratio worked out at 65.

For the variant SRYA, the enrichment ratio is at most 0.25.

Consider WYPT, for which the enrichment ratio is at most 0.25.

WDFS: the enrichment ratio is at most 0.25.

In the case of HTSL, the enrichment ratio stood at 0.568.

Take HLPV: the enrichment ratio was at most 0.25.

In the case of FSGT, the enrichment ratio is at most 0.25.

Take HEVI: the enrichment ratio is at most 0.25.

With RPCR, the enrichment ratio was at most 0.25.

On to KQHR, for which the enrichment ratio is at most 0.25.

Regarding FTYL, the enrichment ratio was at most 0.25.

Consider MWQP, for which the enrichment ratio was at most 0.25.

As to GVGP, the enrichment ratio is at most 0.25.

As for SVIY, the enrichment ratio is at most 0.25.

Turning to TNTI, the enrichment ratio came to 15.8.

As to YTRI, the enrichment ratio is at most 0.25.

As for KTLC, the enrichment ratio is at most 0.25.

Consider WPRV, for which the enrichment ratio was at most 0.25.

Turning to YPCG, the enrichment ratio is at most 0.25.

Regarding GNSK, the enrichment ratio is at most 0.25.

For RIQM, the enrichment ratio is at most 0.25.

For TVIH, the enrichment ratio is at most 0.25.

Take NCSC: the enrichment ratio was found to be 0.253.

Regarding IGPN, the enrichment ratio was at most 0.25.

In the case of PTMR, the enrichment ratio was at most 0.25.

Take QYWL: the enrichment ratio was at most 0.25.

With VPVA, the enrichment ratio is at most 0.25.

For PRLC, the enrichment ratio was at most 0.25.

On to NRLW, for which the enrichment ratio is at most 0.25.

For the variant PVWE, the enrichment ratio was at most 0.25.

Consider NNYE, for which the enrichment ratio was at most 0.25.

RKDL: the enrichment ratio was at most 0.25.

Regarding QENK, the enrichment ratio is at most 0.25.

For the variant PCSG, the enrichment ratio was at most 0.25.

Turning to FQMW, the enrichment ratio is at most 0.25.

For HPWG, the enrichment ratio is at most 0.25.

Regarding ASAF, the enrichment ratio was found to be 15.1.

RKVK: the enrichment ratio is at most 0.25.

On to HTMD, for which the enrichment ratio is at most 0.25.

Take SFTP: the enrichment ratio is at most 0.25.

For ELLG, the enrichment ratio is at most 0.25.

As to DEWM, the enrichment ratio was at most 0.25.

For the variant NVQY, the enrichment ratio was at most 0.25.

As to FGVA, the enrichment ratio was at most 0.25.

For the variant GMWP, the enrichment ratio was at most 0.25.

Regarding ARPF, the enrichment ratio is at most 0.25.

As to ASLC, the enrichment ratio was 16.7.

Regarding NSTD, the enrichment ratio was at most 0.25.

GEHC: the enrichment ratio is at most 0.25.

For AFFT, the enrichment ratio amounted to 1.38.

As to TSEC, the enrichment ratio worked out at 0.526.

Regarding DRTM, the enrichment ratio is at most 0.25.

As for TSWM, the enrichment ratio is 16.2.

Consider LACR, for which the enrichment ratio is at most 0.25.

As to MEGM, the enrichment ratio was at most 0.25.

Take TISG: the enrichment ratio stood at 19.4.

As to MVTV, the enrichment ratio is at most 0.25.

On to RMIK, for which the enrichment ratio is at most 0.25.

Take QYLW: the enrichment ratio is at most 0.25.

Consider RYTS, for which the enrichment ratio was at most 0.25.

As to YWSY, the enrichment ratio is at most 0.25.

As for FDRE, the enrichment ratio was at most 0.25.

Turning to YELS, the enrichment ratio was determined as 14.9.

As to LLWV, the enrichment ratio is at most 0.25.

As to TETF, the enrichment ratio came to 9.65.

For the variant SDTL, the enrichment ratio is at most 0.25.

Turning to LWWE, the enrichment ratio is at most 0.25.

Regarding IGYQ, the enrichment ratio was at most 0.25.

For the variant DKLS, the enrichment ratio is 0.778.

Regarding DRAT, the enrichment ratio is at most 0.25.

Take TPPN: the enrichment ratio was at most 0.25.

Consider KPKG, for which the enrichment ratio is at most 0.25.

For IYWY, the enrichment ratio is at most 0.25.

Take QGSC: the enrichment ratio came to 12.

On to NNIF, for which the enrichment ratio was at most 0.25.

For IKNI, the enrichment ratio was at most 0.25.

On to WGEF, for which the enrichment ratio was at most 0.25.

With NWNH, the enrichment ratio was at most 0.25.

On to PHKV, for which the enrichment ratio is at most 0.25.

Consider MNED, for which the enrichment ratio is at most 0.25.

Take TEGL: the enrichment ratio came to 13.2.

In the case of RCHQ, the enrichment ratio was at most 0.25.

Regarding TQMY, the enrichment ratio was found to be 12.5.

Regarding TDIH, the enrichment ratio is 2.

Take FAWH: the enrichment ratio was at most 0.25.

In the case of IYNK, the enrichment ratio is at most 0.25.

GKDD: the enrichment ratio is at most 0.25.

For RDPI, the enrichment ratio was at most 0.25.

Turning to WNCD, the enrichment ratio was at most 0.25.

Turning to LMSN, the enrichment ratio was at most 0.25.

Regarding NHGA, the enrichment ratio was at most 0.25.

On to DPTV, for which the enrichment ratio is at most 0.25.

On to PGDA, for which the enrichment ratio was at most 0.25.

Turning to IEFM, the enrichment ratio is at most 0.25.

In the case of HTGY, the enrichment ratio was at most 0.25.

Turning to EYMD, the enrichment ratio is at most 0.25.

For MPAW, the enrichment ratio is at most 0.25.

As to VQWM, the enrichment ratio was at most 0.25.

Turning to NMSA, the enrichment ratio is at most 0.25.

In the case of QLLG, the enrichment ratio was 0.299.

QSLC: the enrichment ratio was at most 0.25.

ENYM: the enrichment ratio is at most 0.25.

On to YFYS, for which the enrichment ratio is at most 0.25.

KPLS: the enrichment ratio is at most 0.25.

As for PFYL, the enrichment ratio is at most 0.25.

Consider ALVD, for which the enrichment ratio was at most 0.25.

For the variant FMKI, the enrichment ratio is at most 0.25.

Consider GSTD, for which the enrichment ratio is at most 0.25.

Consider KDFV, for which the enrichment ratio was at most 0.25.

As to HPAF, the enrichment ratio is at most 0.25.

Consider GGQS, for which the enrichment ratio was at most 0.25.

For the variant AKPM, the enrichment ratio is at most 0.25.

On to HCSM, for which the enrichment ratio was at most 0.25.

Take LTEA: the enrichment ratio is at most 0.25.

With NDMI, the enrichment ratio worked out at 5.32.

As to ASPL, the enrichment ratio came out at 1.12.

In the case of GTTP, the enrichment ratio is at most 0.25.

DIAN: the enrichment ratio stood at 2.1.

On to PYID, for which the enrichment ratio was at most 0.25.

Consider VHMP, for which the enrichment ratio is at most 0.25.

As for VCCG, the enrichment ratio came to 1.29.

In the case of TFPG, the enrichment ratio was at most 0.25.

On to AMVG, for which the enrichment ratio was at most 0.25.

With RNVR, the enrichment ratio is at most 0.25.

Regarding WYTT, the enrichment ratio was at most 0.25.

Turning to SMGW, the enrichment ratio was at most 0.25.

Turning to KMVC, the enrichment ratio was at most 0.25.

Take LTTG: the enrichment ratio is at most 0.25.

As to SFSK, the enrichment ratio is at most 0.25.

As to QRLC, the enrichment ratio was at most 0.25.

Consider TRLW, for which the enrichment ratio is at most 0.25.

Take RCRP: the enrichment ratio is at most 0.25.

As to ELTD, the enrichment ratio was at most 0.25.

As to WEIV, the enrichment ratio was at most 0.25.

For TASI, the enrichment ratio amounted to 12.5.

In the case of YKHI, the enrichment ratio is at most 0.25.

As to EMMQ, the enrichment ratio was at most 0.25.

MRTA: the enrichment ratio was at most 0.25.

Regarding SIER, the enrichment ratio was at most 0.25.

Consider KEPN, for which the enrichment ratio was at most 0.25.

Consider IPVM, for which the enrichment ratio was at most 0.25.

For the variant LDDM, the enrichment ratio is at most 0.25.

With DRGT, the enrichment ratio was at most 0.25.

Turning to YSFK, the enrichment ratio was at most 0.25.

Consider DKST, for which the enrichment ratio is at most 0.25.

Regarding ASPV, the enrichment ratio came out at 0.706.

Turning to MRLW, the enrichment ratio is at most 0.25.

Consider DMMD, for which the enrichment ratio is at most 0.25.

Consider KHCS, for which the enrichment ratio is at most 0.25.

Regarding FMCE, the enrichment ratio was at most 0.25.

For the variant TTMH, the enrichment ratio was 5.31.

On to AINH, for which the enrichment ratio is at most 0.25.

PFNK: the enrichment ratio was at most 0.25.

As to FPIR, the enrichment ratio is at most 0.25.

As to AGHE, the enrichment ratio was at most 0.25.

As to WKNV, the enrichment ratio was at most 0.25.

As to MRWN, the enrichment ratio is at most 0.25.

As to PNQP, the enrichment ratio is at most 0.25.

Take WFTT: the enrichment ratio is at most 0.25.

For the variant GYTM, the enrichment ratio is at most 0.25.

For KNVS, the enrichment ratio is at most 0.25.

With RYFV, the enrichment ratio was at most 0.25.

For WHKQ, the enrichment ratio is at most 0.25.

As for QKGL, the enrichment ratio is at most 0.25.
